Source: the RNAGym collection of RNA variant scans (doi:10.7554/elife.90254)
Read counts are not given, so values of variants with three or more changes are uncertain.

B1: LINE1-mini (parent)
chain: GGCAGAGCUCAACACAGCGUGGCAAAGUGGCUGUGGCUAGACUGCC

Variants of: B1
Assay: self-cleavage, relative activity (ratio to wild type); higher = more cleavage; in vitro, sequencing; the parent is a self-cleaving ribozyme

| Variant | self-cleavage |
| --- | --- |
| C3U U34G U38A | 0.07 |
| C3U U38A C46A | 0.33 |
| C3U U38C A41C U43G | 0.3 |
| C3U U38C C46A | 0.27 |
| A4C A6C A16C | 0.14 |
| A4C A6C A26C U32G C46U | 0.02 |
| A4C A6C C8G | 0.02 |
| A4C A6C C13U G30U A41U | 0.05 |
| A4C A6C C15U G44U | 0.05 |
| A4C A6C G17U C18U G22A G33A | 0.01 |
| A4C A6C G21C G30A A41C C45A | 0.04 |
| A4C A6C G27A G36U | 0.11 |
| A4C A6G A25U C46G | 0.63 |
| A4C A6G A41U | 0.33 |
| A4C A6G C8A A26C U34A | 0.1 |
| A4C A6G C8A U9C A16U G22A A26C G36A | 0.53 |
| A4C A6G C8U C42U U43C G44A | 0.63 |
| A4C A6G G30C | 0.26 |
| A4C A6G U9G G19U G21U U32C | 0.02 |
| A4C A6U A11G G40A | 0.03 |
| A4C A6U C8A G21A | 1.21 |

| Variant | self-cleavage |
| --- | --- |
| A4C A6U C10U C13U A16G G29U C37A C46G | 0.04 |
| A4C A6U C10U G22C U38G | 0.02 |
| A4C A6U C18A | 0.04 |
| A4C A6U C23A | 0.14 |
| A4C A6U C31U | 0.19 |
| A4C A6U G22A U28C | 0.14 |
| A4C A6U G40A | 0.07 |
| A4C A6U U32A | 0.01 |
| A4C A11C A26U C45G | 0.01 |
| A4C A11C C13U A25C U34G A39U C42G | 0 |
| A4C A11C G22A C45A | 0.01 |
| A4C A11C G30A | 0.03 |
| A4C A11G A16G C18A G36U | 0.01 |
| A4C A11G A39G | 0.01 |
| A4C A11G G29U U34C | 0.05 |
| A4C A11G U28G G33U G44U C45A | 0 |
| A4C A11U A12C A25C | 0.01 |
| A4C A11U A14G G21C U43C | 0.03 |
| A4C A11U A41G | 0 |
| A4C A11U C15A A16G G44C | 0.01 |
| A4C A11U C15G G35U | 0.02 |

| Variant | self-cleavage |
| --- | --- |
| A4C A11U G17A C23A A39U | 0.01 |
| A4C A11U G44A | 0.03 |
| A4C A12C A14C U43C C45A | 0.01 |
| A4C A12C G22C G27A | 0.07 |
| A4C A12C G29C C31U | 0.04 |
| A4C A12C U34A C46A | 0.08 |
| A4C A12G C18U A26U U34G | 0.07 |
| A4C A12G C46U | 0.27 |
| A4C A12G G29A | 0.14 |
| A4C A12U A26G | 0.02 |
| A4C A12U G30A C31G | 0.03 |
| A4C A14C A24C C45G | 0.04 |
| A4C A14C C18U G44A | 0.04 |
| A4C A14C C31U | 0.05 |
| A4C A14C C42U | 0.35 |
| A4C A14C G22A | 0.01 |
| A4C A14C G22C A39G C46U | 0.31 |
| A4C A14C G30U | 0.03 |
| A4C A14C G36C U43A | 0.05 |
| A4C A14C U28G A41G | 0.02 |
| A4C A14G A24G | 0.09 |

| Variant | self-cleavage |
| --- | --- |
| A4C A14G C37A G40A | 0 |
| A4C A14G G40C | 0.08 |
| A4C A14U A16G G27U | 0.02 |
| A4C A14U G17A G44U | 0.31 |
| A4C A14U G30A C31A | 0.14 |
| A4C A14U U20G G22A | 0.46 |
| A4C A16C A24U U32C C37U | 0.02 |
| A4C A16C G40A | 0.1 |
| A4C A16G C23U G29A U32C C42G | 0 |
| A4C A16G G27C U43A | 0 |
| A4C A16U C37U | 0.04 |
| A4C A16U G36A | 0.05 |
| A4C A16U U34G G44A | 0.17 |
| A4C A24C A25U G40C C42U G44A | 0 |
| A4C A24G U43G | 0.22 |
| A4C A24U U38A | 0.04 |
| A4C A24U U38C | 0.07 |
| A4C A25C G30C | 0.09 |
| A4C A25C G40U | 0.1 |
| A4C A25C U32C | 0.07 |
| A4C A25C U34A | 0.05 |
